Assays:
[1] = molecular target: T1, BTLA-His (human, UniProt Q7Z6A9 31-157, limits assumed); assay: BLI (Octet RED96), BTN1A1-Fc on anti-hIgG Fc capture tips, BTLA-His at 6.4 µM
T1 construct: That entry includes signal peptide, TM and cytoplasmic parts that a soluble protein would lack; also called soluble BTLA; not shown: His tag
T1 sequence: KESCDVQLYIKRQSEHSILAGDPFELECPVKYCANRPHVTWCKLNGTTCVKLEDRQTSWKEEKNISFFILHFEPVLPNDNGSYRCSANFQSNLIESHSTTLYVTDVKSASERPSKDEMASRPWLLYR

[2] = molecular target: T1, BTLA-His; assay: BLI (Octet RED96), BTN1A1-Fc on anti-hIgG Fc capture tips, BTLA-His at 0.8 µM
[3] = molecular target: T1, BTLA-His; assay: BLI (Octet RED96), BTN1A1-Fc on anti-hIgG Fc capture tips, BTLA-His at 1.6 µM
[4] = molecular target: T1, BTLA-His; assay: BLI (Octet RED96), BTN1A1-Fc on anti-hIgG Fc capture tips, BTLA-His at 3.2 µM

B1: BTN1A1-ECD-Fc (Fc fusion)
chain: APFDVIGPPEPILAVVGEDAELPCRLSPNASAEHLELRWFRKKVSPAVLVHRDGREQEAEQMPEYRGRATLVQDGIAKGRVALRIRGVRVSDDGEYTCFFREDGSYEEALVHLKVAALGSDPHISMQVQENGEICLECTSVGWYPEPQVQWRTSKGEKFPSTSESRNPDEEGLFTVAASVIIRDTSAKNVSCYIQNLLLGQEKKVEISIPASSLPR[sequence of human IgG1 Fc omitted]
modifications: glycosylated (so in the source); sites not stated for this construct
notes: The entry already holds the Fc; also called BTN1A1-Fc; glycosylated wild-type BTN1A1-Fc
- Kd [1]: 843 nM
- koff [1]: 0.000778 s⁻¹
- kon [1]: 923 M⁻¹ s⁻¹
- Kd [2]: 9530 nM
- koff [2]: 0.000761 s⁻¹
- Kd [3]: 724 nM
- koff [3]: 0.00119 s⁻¹
- kon [3]: 1650 M⁻¹ s⁻¹
- Kd [4]: 579 nM
- koff [4]: 0.000728 s⁻¹
- kon [4]: 1260 M⁻¹ s⁻¹

Reference: patent US20200131269A1 (STCUBE, published 2020)
